Results published in PubChem BioAssay (NCATS).
Where “and” joins values, the source holds several entries; their conditions need not be identical. Equal entries are not always repeated. The shares of active, inactive and inconclusive entries below differ from those in the screen. Potencies of inconclusive entries are doubtful fits and often do not repeat. Calls of active or inactive are those of the source. Calls come from the whole dose curve; as a rule, active = well fitted curve in the direction sought with a large enough effect; inconclusive = small, poorly fitted or top-dose-only effect, or another doubt; inactive = no such curve, though single readings can be large; an effect the other way counts as inactive or inconclusive.

test system: not listed separately; assay: qHTS for Inhibitors of the vitamin D receptor (VDR): Hit Validation using a Texas Red Assay (AID 602201); conditions: VDR coregulator binding, Texas Red fluorescence polarization; agonist-bound VDR ligand-binding domain
Outline: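 After a 2-hour room-temperature incubation, polarization of Texas-Red emission was read (Ex 595 nm/Em 615 nm). Final mix contained 7 nM Texas Red, 1.5 uM VDR-LBD and LG19078.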
Potency is the fitted concentration of half-maximal effect; tags give direction and shape of the fitted curve.

Q: With `CCCCC1C(=O)N(c2ccccc2)N(c2ccc(O)cc2)C1=O` (stereo not given) as the compound, how does the Potency read?
A: active: 15.8 µM

Q: With `CC1(C)CCC2=C(O1)c1ccccc1C(=O)C2=O` as the compound, how does the Potency read?
A: active: 14.1 µM

Q: For `O=[N+]([O-])c1ccc2c(c1)S(=O)(=O)C=C2`, which Potency is on record?
A: inconclusive: 39.8 µM [inhibitor, single point]

biological target: Luciferin 4-monooxygenase (Photinus pyralis) (UniProt P08659); assay: Biochemical firefly luciferase enzyme assay for NPC (AID 624030); note: nearly all actives have a fitted effect of over 70% in size;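 for activity change, negative = inhibition: purified P. pyralis luciferase at 10 nM with luciferin and ATP substrate; 0% = DMSO and -100% = full luciferase inhibition by PTC124 control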; conditions: purified P. pyralis luciferase, luminescence, 5 min; series mostly up to 58.6 µM; activity change, negative = inhibition: at the top concentration
Sequence of UniProt P08659 (P08659 whole entry, looked up): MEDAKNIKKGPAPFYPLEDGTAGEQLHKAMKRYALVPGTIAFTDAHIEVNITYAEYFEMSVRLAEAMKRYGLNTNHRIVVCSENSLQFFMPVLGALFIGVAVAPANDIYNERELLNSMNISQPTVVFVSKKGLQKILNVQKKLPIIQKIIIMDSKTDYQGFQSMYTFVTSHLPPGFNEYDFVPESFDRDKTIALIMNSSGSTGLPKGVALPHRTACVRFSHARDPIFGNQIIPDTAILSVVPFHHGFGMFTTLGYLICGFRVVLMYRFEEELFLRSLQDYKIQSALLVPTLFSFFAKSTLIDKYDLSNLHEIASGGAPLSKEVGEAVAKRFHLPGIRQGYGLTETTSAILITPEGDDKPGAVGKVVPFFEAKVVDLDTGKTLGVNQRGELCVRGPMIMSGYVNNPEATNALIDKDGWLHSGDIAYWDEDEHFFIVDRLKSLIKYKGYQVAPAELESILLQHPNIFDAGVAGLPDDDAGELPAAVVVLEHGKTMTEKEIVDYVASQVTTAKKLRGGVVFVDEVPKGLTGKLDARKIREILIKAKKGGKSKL
Outline: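 Direct inhibition of firefly luciferase enzyme (10 nM final, 50 mM Tris Acetate) assessed by luminescence within 5 minutes. Percent activity scaled between DMSO and PTC124 positive control, with concentration-effect curves classified by fit quality and response.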

Q: Which Potency does the source give for `O=C(Nc1ccc(C(=O)O)c(O)c1)c1ccccc1` here?
A: inconclusive: 32.2 µM [inhibitor, partial curve]

Q: Which Potency does the source give for `O=C(O)Cc1cccc(-c2cc(CCCCCCc3ccc(O[C@H]4O[C@H](CO)[C@@H](O)[C@H](O)[C@@H]4O)c(-c4cccc(CC(=O)O)c4)c3)ccc2O[C@H]2O[C@H](CO)[C@@H](O)[C@H](O)[C@@H]2O)c1` here?
A: inconclusive: 40.5 µM [inhibitor, partial curve, poor fit]

Q: For `CCCOC(=O)c1ccc(O)cc1`, which Potency is on record?
A: inconclusive: 66.2 µM [inhibitor, partial curve, poor fit]

Q: Which Potency does the source give for `Nc1ccc(N=Nc2ccccc2)c(N)n1` here?
A: active: 10.2 µM

Q: With `Nc1ccc(C(=O)Oc2ccccc2)c(O)c1` as the compound, how does the Potency read?
A: active: 6.42 µM

Q: Which Potency does the source give for `COc1ccc2nc(NC(=O)Nc3ccccc3)sc2c1` here?
A: active: 0.721 µM

Q: With `CN(C)c1ccc(N=NS(=O)(=O)O)cc1` as the compound, how does the Potency read?
A: inconclusive: 26.3 µM [inhibitor, partial curve]

Q: For `O=C(O)CCC(=O)c1ccc(-c2ccccc2)cc1`, which Potency is on record?
A: active: 4.36 µM

Q: For `COc1ccc2cc(CCC(C)=O)ccc2c1`, which Potency is on record?
A: inconclusive: 11 µM [inhibitor, partial curve]

Q: Which Potency does the source give for `S=c1[nH]c2ccccc2s1` here?
A: inconclusive: 18.1 µM [inhibitor, partial curve, poor fit] and inconclusive: 37.2 µM [inhibitor, partial curve, poor fit]

Q: Which Potency does the source give for `CCN1/C(=C/C=C/c2sc3ccccc3[n+]2CC)Sc2ccccc21` here?
A: active: 12.8 µM

Q: With `CN(C)c1cc(NC(=O)CNC(C)(C)C)c(O)c2c1C[C@@H]1C[C@H]3[C@H](N(C)C)C(=O)C(C(N)=O)=C(O)[C@@]3(O)C(=O)C1=C2O` as the compound, how does the Potency read?
A: inconclusive: 20.3 µM [inhibitor, partial curve, poor fit]

Q: For `Nc1ccc(O)c([N+](=O)[O-])c1`, which Potency is on record?
A: inconclusive: 52.6 µM [inhibitor, partial curve]

Q: Which Potency does the source give for `Cc1c(C)n(Cc2ccccc2)c2ccc(C(=O)OCCN(C)C)cc12` here?
A: inconclusive: 14.4 µM [inhibitor, partial curve]

Q: With `Nc1c(CC(=O)O)cccc1C(=O)c1ccc(Br)cc1` as the compound, how does the Potency read?
A: inconclusive: 25.6 µM [inhibitor, partial curve]

Q: For `Cc1nc(-c2ccc(OCC(C)C)c(C#N)c2)sc1C(=O)O`, which Potency is on record?
A: active: 0.0361 µM

Q: For `CCOc1ccc2nc(S(N)(=O)=O)sc2c1`, which Potency is on record?
A: inconclusive: 25.6 µM [inhibitor, partial curve, poor fit]

Q: With `O=C(O)c1cccnc1Nc1cccc(C(F)(F)F)c1` as the compound, how does the Potency read?
A: inconclusive: 32.2 µM [inhibitor, partial curve]

Q: With `O=C(CS)Nc1ccccc1` as the compound, how does the Potency read?
A: inconclusive: 28.7 µM [inhibitor, partial curve, poor fit]

Q: For `OCc1cc(C(O)CNCCCCCCOCCCCc2ccccc2)ccc1O` (stereo not given), which Potency is on record?
A: inconclusive: 14.4 µM [inhibitor, partial curve, poor fit]

Q: With `Oc1cccc(-c2c3nc(c(-c4cccc(O)c4)c4ccc([nH]4)c(-c4cccc(O)c4)c4nc(c(-c5cccc(O)c5)c5ccc2[nH]5)CC4)C=C3)c1` as the compound, how does the Potency read?
A: inconclusive: 40.5 µM [inhibitor, partial curve, poor fit] and inconclusive: 32.2 µM [inhibitor, partial curve]

Q: With `CCCCCCCCCCCC(=O)[O][Sn]([CH2]CCC)([CH2]CCC)[O]C(=O)CCCCCCCCCCC` as the compound, how does the Potency read?
A: inconclusive: 32.2 µM [inhibitor, partial curve]

Q: With `Clc1ccccc1-c1nc(-c2ccncc2)no1` as the compound, how does the Potency read?
A: active: 3.61 µM

Q: For `Cc1ccc(O)c(-n2nc3ccccc3n2)c1`, which Potency is on record?
A: active: 2.87 µM

Q: Which Potency does the source give for `COC(=O)C1=C(C)NC(C)=C(C(=O)OCC(C)C)C1c1ccccc1[N+](=O)[O-]` (stereo not given) here?
A: inconclusive: 7.21 µM [inhibitor, partial curve, poor fit]

Q: With `CC(C)Oc1ccc2c(=O)c(-c3ccccc3)coc2c1` as the compound, how does the Potency read?
A: active: 2.03 µM

Q: For `NNc1nncc2ccccc12`, which Potency is on record?
A: active: 0.0775 µM

Q: With `O=C(Nc1ccc([N+](=O)[O-])cc1Cl)c1cc(Cl)ccc1O` as the compound, how does the Potency read?
A: active: 0.114 µM

Q: With `CC(=O)SCC(CC(=O)c1ccc(C)cc1)C(=O)O` (stereo not given) as the compound, how does the Potency read?
A: inconclusive: 28.7 µM [inhibitor, partial curve]

Q: Which Potency does the source give for `Nc1ccccc1N` here?
A: active: 2.63 µM

Q: With `[O-][n+]1ccccc1SSc1cccc[n+]1[O-]` as the compound, how does the Potency read?
A: active: 2.56 µM

Q: For `CC(C)(C)NC[C@H](O)COc1cccc2c1CCCC2=O`, which “activity change, negative = inhibition” value is on record?
A: inactive: -4.64% [at 24.9 µM]
